Results: PubChem BioAssay AID1508624 (National Center for Advancing Translational Sciences (NCATS), 2021)
Out of some 48,000 compounds screened, about 120 (0.25%) were called active. Not shown: some 4% with an inconclusive outcome. Calls come from the whole dose curve; as a rule, active = well fitted activation curve with a large enough effect; inconclusive = small, poorly fitted or top-dose-only effect, or another doubt; inactive = no such curve, though single readings can be large or run the other way. Some of the results follow.

assay: Primary qHTS for Identification of Small Molecule Activators of Huntingtin-Antisense Promoter Activity; conditions: HEK293 HTT-AS promoter firefly luciferase reporter, 24 h; series mostly up to 57.5 µM; activity change, positive = activation: at the top concentration; note: nearly all actives have a fitted effect of over 55% in size
Procedure, shortened: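 Luminescence was read after Dual-Glo reagent and a 10 min room-temperature incubation. Values were normalized to vehicle (0% activity) and zero RLU (-100% activity). Reporter HEK293 cells had been exposed to compounds (up to 57.5 uM final) for 24 h.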

Activity change, positive = activation, inactive:
CCCCOc1cccc(NC(=O)CSc2nnc(C)s2)c1 1.41%
CN(Cc1ccccc1)c1ncnc2onc(-c3ccc(F)cc3)c12 -36.4%
COc1ccc(OC)c(NC(=O)CSc2nc3ccccc3nc2N2CCCCC2)c1 -18.9%
COc1ccc(NC(=O)COc2ccc(S(=O)(=O)NC3CCCCC3)cc2)cc1OC -29.7%
O=C(Nc1ccccc1)c1ccc(Br)c(S(=O)(=O)N2CCCCC2)c1 -8.62%
CCCC(=O)OCc1cnc(C)c2oc(=O)c(C(=O)Nc3ccccc3)cc12 -11.8%
COc1ccc(NC(=O)C2CCC(CNS(=O)(=O)c3ccc(Br)s3)CC2)cc1OC (configuration not stated) -30.4%
CC(NC(=O)CCNS(=O)(=O)c1cccc2nsnc12)c1ccccc1 (configuration not stated) -3.07%
Cc1ccc2c(=O)cc(CSCC(=O)Nc3nnc(C)s3)[nH]c2c1 -8.29%
COc1ccc(Br)cc1C1Sc2ccccc2NC2=C1C(=O)c1ccccc12 (configuration not stated) -21.2%
CCOc1cc(-c2nc(-c3ccc(Br)cc3)no2)cc(OCC)c1OCC 17%
COC(=O)[C@@H]1CC2=CC(=O)CC[C@]2(C)[C@@]23O[C@@H]2C[C@@]2(C)[C@H](CC[C@@]24CCC(=O)O4)[C@@H]13 -1.48%
COc1ccc(-c2cc(C(F)(F)F)n3nc(C(=O)NCC45CC6CC(CC(C6)C4)C5)cc3n2)cc1 -19.4%
O=C(CN1C(=O)COc2ccc(S(=O)(=O)N3CCOCC3)cc21)N1CCN(c2ccccc2)CC1 -3.04%
COCCCNC(=O)c1ccc2c(=O)n(Cc3ccc(OC)cc3)c(=O)[nH]c2c1 -9.44%
CSc1ccc2c(c1)C(N1CCN(C)CC1)Cc1ccccc1S2 (configuration not stated) -21.3%
Cc1nc(-c2ccc(C)c(S(=O)(=O)N3CCC(C(=O)NCc4ccc(Cl)cc4)CC3)c2)no1 -20.7%
Cc1cccc(CSc2nc3c(c(=O)[nH]2)C(c2cccc(O)c2)CC(=O)N3)c1 (configuration not stated) -28.3%
Cc1ccc(S(=O)(=O)C(CNC(=O)c2ccccc2F)c2cccs2)cc1 (configuration not stated) -10%
CCOC(=O)c1c(NC(=O)c2cc(C(C)C)on2)sc(C)c1C 15.7% [at 11.5 µM, percent change from vehicle, -100% = no light]
CC(C)(C)C(=O)Oc1ccc(S(=O)(=O)Nc2ccccc2C(=O)NCC(=O)O)cc1
COc1ccc(C2=C(C)C(=O)N(Cc3ccc(C(=O)NCc4ccc(C)cc4)cc3)S2(=O)=O)cc1 -4.14%
Cc1cccc(CN2CCN(CC(=O)NCc3ccc(Cl)cc3)C2=O)c1 -17.2%
COc1ccc(-n2ncc(C(=O)N3CCc4ccccc4C3)c2C2CCN(C(=O)OC(C)(C)C)CC2)cc1 2.53%
Cc1cc(C)cc(NS(=O)(=O)c2ccc3c(c2)CCCN3C(=O)C2CCC2)c1 -16%
CC(C(=O)O)c1ccc2c(c1)Cc1cccnc1O2 (configuration not stated) -1.39%
Cc1oc2ncn(C)c(=O)c2c1C(=O)NCCCN1CCCC(C)C1 (configuration not stated) -15.7%
C[C@H]1COc2c(C3(N)CC3)c(F)cc3c(=O)c(C(=O)O)cn1c23 -11.9%
O=C(Nc1ccc(Br)cc1F)c1ncoc1-c1ccco1 15.7%
CCCN(CCC)CCCNC(=O)c1cn(CC)c2ccc(S(=O)(=O)N3CCc4ccccc4C3)cc2c1=O -6.95%
COc1cccc(CNCCSc2nnnn2C)c1OCc1ccc(Cl)cc1 -22.9%
CN(C)CCCN1c2ccccc2Sc2ccccc21 -13.5%
CC(C)c1ccc(NC(=O)C2CCCN(S(=O)(=O)c3ccc4[nH]c(=O)ccc4c3)C2)cc1 (configuration not stated) -40.1%
CCc1ccc(Cn2nnc(C(=O)Nc3ccc(C)cc3)c2N)cc1 15.6%
CCOC(=O)c1ccc2c(c1)N(CC(=O)Nc1ccc(CC)cc1)C(=O)c1ccccc1S2 2.93%
COc1cc(NC(=O)Cn2cnc3sc(C)c(S(=O)(=O)N4CCN(C)CC4)c3c2=O)cc(OC)c1OC -11%
Cc1ccc(Nc2c(-c3ccc(N4CCOCC4)cc3)nc3ncccn23)cc1C -24.9%
CCOC(=O)c1ccc(NC(=O)CC2C(=O)N(c3ccccc3)C(=O)N2C2CCCCC2)cc1 (configuration not stated) -12.8%
CCOc1cccc(C(=O)Nc2ccc(NC(=O)c3ccc(Br)cc3)cc2)c1 -26.7%
CCN(c1ccc(C)cc1C)S(=O)(=O)c1nnc(NC(=O)c2ccccc2OC)s1 -37.8%
CCOC(=O)c1oc2ccc(S(=O)(=O)n3nc(-c4cc(OCC)c(OCC)c(OCC)c4)cc3N)cc2c1C -16.3%
O=C(CSc1oc(-c2ccco2)nc1S(=O)(=O)c1ccccc1)c1ccc(Cl)cc1 -14.1%
Cc1cc(C)c2oc(C(=O)Nc3c(C(=O)Nc4ccccc4)oc4ccccc34)cc(=O)c2c1 1.27%
Cn1c(SCc2ccc(F)cc2)nc2ccc(C(=O)NCc3ccccc3)cc21 -49.8%
CCCCn1cc(S(=O)(=O)c2ccc(Cl)cc2)c(=O)c2cc(F)c(N3CCCCC3)cc21 -7.46%
Cc1ccc(OCC(=O)Nc2ccc(S(=O)(=O)N(Cc3ccccc3)c3ccccc3)cc2)cc1 -61.1%
COc1ccccc1CNC(=O)c1c(O)nc2cc(C)ccn2c1=O -5.04%
Cc1nc2ccc(S(=O)(=O)NC(C(=O)NCc3ccc(Cl)cc3)C(C)C)cc2s1 (configuration not stated) -11.9%
Cc1cccc(C(=O)Nc2ccccc2C(=O)OCc2cc(=O)n3nc(C4CC4)sc3n2)c1 8.68%
CCOC(=O)c1c(-c2ccc(OC)c(OC)c2)csc1NC(=O)c1ccc(F)cc1 -2.73%
COc1cccc(N2C(=O)CSC23C(=O)N(CC(=O)NCc2ccc(C)cc2)c2ccccc23)c1 (configuration not stated) -5.96%
CSC1=NC2(CCN(C(=O)NC3CCCCC3)CC2)N=C1c1ccc(C(C)(C)C)cc1 -12.1%
Cc1cc(C(C)(C)C)c(O)c(C)c1CC1=NCCN1
O=C(C1CCN(c2nc3ccccc3[nH]2)CC1)N1CCN(c2cccc(Cl)c2)CC1 -20.8%
CCc1ccc2occ(CC(=O)Nc3sc4c(c3C(=O)OC)CCC4)c2c1 -23.3%
NC(Cc1ccc(Cl)cc1)C(=O)O (configuration not stated) -3.18% [at 0.74 µM, percent change from vehicle, -100% = no light]
CCOc1ccc(NC(=O)c2c(NC(=O)c3ccccc3Br)sc3c2CCC(C)C3)cc1 (configuration not stated) -8.24%
CCOc1ccc(NC(=O)CC2C(=O)N(c3ccc(C)cc3)C(=O)N2Cc2ccc(OC)cc2)cc1 (configuration not stated) -20.2%
CCC(=O)N1CCc2cc(Br)cc(S(=O)(=O)N(CC)Cc3ccccc3)c21 -7.77%
COc1ccc(OC)c(NC(=O)N(C)CCc2c(C)nn(C)c2C)c1 8.39%
CCc1cccc(C)c1NC(=O)c1cn2c3c(ccc(Cl)c3c1=O)OC(C)C2 (configuration not stated) -19.2%
Cc1cccc(N2CCN(c3ncnc4onc(C)c34)CC2C)c1 (configuration not stated) -93.2%
Cc1ccc(-c2nc3ncccc3o2)cc1NC(=O)c1ccc(-c2cccc(Cl)c2C)o1 -6.18%
Cc1nc(-c2cccc(F)c2)sc1CCNC(=O)C(=O)Nc1ccc2c(c1)OCO2 -10.3%
CCCCN(C)S(=O)(=O)c1cc(-c2cc(C)no2)ccc1C -30.2%
CCOc1ccc(S(=O)(=O)NCC(c2ccc(N(C)C)cc2)N2CCc3ccccc32)cc1 (configuration not stated) -15%
Cc1cc(-c2nc3ncccc3o2)ccc1NC(=O)c1ccc(Cl)cc1 6.55%
COC(=O)CSc1ccc2nnc(CCNS(=O)(=O)c3ccccc3)n2n1 -10.4%
CCOC(=O)c1ccc(NC(=O)c2c(NCc3cc(OC)c(OC)cc3OC)sc3c2CCCC3)cc1 -21.3%
CCc1ccc(N2CCn3c2nc2c3c(=O)n(CCCc3ccccc3)c(=O)n2C)cc1 -10.9%
CCCc1cnc2c(c1SCC(=O)Nc1cccc(C)c1C)c(=O)n(C)c(=O)n2C -6.85%
CCOc1ccc(-c2nonc2NC(=O)COc2ccccc2)cc1 2.96%
COc1ccc(-n2cc(-c3ccccc3)c3c(NCCc4ccc(OC)c(OC)c4)ncnc32)cc1 -45.8%
CCN1CCN(c2cc3c(cc2F)c(=O)c(S(=O)(=O)c2cc(C)cc(C)c2)cn3CC)CC1 4.56%
Cn1c(=O)oc2cc(S(=O)(=O)N3CCCC(C(=O)N4CCN(c5cccc(Cl)c5)CC4)C3)ccc21 (configuration not stated) -42.5%
O=C(NCCCCc1ccccc1)c1nn(-c2ccccc2)nc1CO -28.8%
COc1ccc(NC(=O)Cn2nnc(C(=O)Nc3ccc(C)c(F)c3)c2N)cc1Cl -15.7%
CC1=C(C(=O)OCC2CCCCC2)C(c2cccc(F)c2F)CC(=O)N1 (configuration not stated) -19.6%
O=C(CC1(O)C(=O)N(Cc2ccccc2)c2ccc(Br)cc21)c1ccccc1 (configuration not stated) -29.9%
COc1ccc(CNC(=O)CN(c2ccc(OC)cc2)S(=O)(=O)c2c(C)[nH]c(=O)[nH]c2=O)cc1 6.48% [at 11.5 µM, percent change from vehicle, -100% = no light]
NS(=O)(=O)c1cc(C(=O)O)cc(N2CCCC2)c1Oc1ccccc1 -7.9%
Cc1cc(C)cc(OCCn2c(CCNC(=O)C3CCCCC3)nc3ccccc32)c1 -4.52%
O=C(Cc1ccccc1F)N1CCC(c2nc3c(nnn3Cc3cccc(Cl)c3)c(=O)[nH]2)CC1 -50.9%
Cc1ccn2c(Nc3ccccc3C)c(-c3ccccc3)nc2c1 -14%
O=C(Nc1ccc2nc(SCC(=O)N3CCOCC3)sc2c1)c1ccccc1Cl -27%
Cc1cccc(OCC(=O)Nc2ccccc2OCc2cc(=O)n3cc(C)ccc3n2)c1 -6.35%
Cc1ccc(NCc2cccn2-c2nnc(N3CCC(C(=O)NCc4ccc(F)cc4)CC3)s2)cc1 -41.8%
CCn1ccc2cc(S(=O)(=O)N3CCC(C(=O)NCc4ccc(F)cc4)CC3)ccc21 -19.4%
O=C(Cn1c(=O)n2nc(-c3cccc(F)c3)nc2c2ccccc21)NCc1ccc(Cl)cc1 4.34%
COc1cccc(NC(=O)Cn2c(=O)n(Cc3ccco3)c(=O)c3cc(OC)c(OC)cc32)c1 -25.3%
COc1ccc(-c2cccc(NS(=O)(=O)c3cc(C)ccc3OC)c2)nn1 -33.7%
CCc1cccc(C)c1NS(=O)(=O)c1ccc(-c2cc(C)no2)s1 -25%
